{
  "source": "PubChem BioAssay AID1963421",
  "about": "(Molecular Pharmacology Branch, DTP, NCI, 2024)",
  "tested_on": "519858-162-T-J1-PDC complex spheroid growth, % test/control",
  "experiment": "Anticancer human tumor 519858-162-T-J1-PDC patient-derived colon adenocarcinoma cell line growth inhibition [Asc]",
  "details": "for viability, T/C: stronger effect = lower value",
  "description": "Multicellular complex tumor spheroid response to apoptosis pathway targeting inhibitors Alrizomadlin, Pelcitoclax, and Dasminapant in combination with a variety of drugs and investigational agents in selected tumor cell lines\nThe MDM2 inhibitor alrizomadlin, the Bcl-2/Bcl-xL inhibitor pelcitoclax, and the IAPs inhibitor dasminapant were evaluated both individually and in combination with standard of care and investigational anticancer small molecules within a complex spheroid model of solid tumors. . Complex spheroids include a stromal component modeled by human endothelial cells (HUVEC) and fibroblasts modeled by human mesenchymal stem cells (MSCs). The concentration ranges selected for each drug and investigational agent were based upon clinically achievable concentrations if the clinical Cmax of the agent was known.\nCompounds. The drugs and investigational agents: alrizomadlin (APG-115; NSC831270), pelcitoclax (APG-1252; NSC835773), dasminapant (APG-1387;NSC834197), TAK-243 (NSC785004), copanlisib (NSC809693), olaparib (NSC753686), talazoparib (NSC767125), cobimetinib (NSC 768068), eltanexor (KPT-8602, NSC 794443), abemaciclib (NSC 768073), sotorasib (NSC818433), adagrasib (NSC 831453), MRTX-1133 (NSC 836407), Iadademestat (ORY1001, NSC 806812), and RMC-4630 (NSC839698), were obtained from the NCI Developmental Therapeutics Program Chemical Repository. The FDA-approved anticancer drug set is available from the Developmental Therapeutics Program at https://dtp.cancer.gov/organization/dscb/obtaining/available plates.htm. […] The stock solutions were prepared in dimethyl sulfoxide (DMSO, Sigma-Aldrich, St. Louis, MO, cat. D2650) at 800-fold the tested concentration and stored at -70 degrees C prior to their use. All drugs and investigational agents were tested over a range starting from a high concentration at or near the clinical Cmax and decreasing in half-log increments. If the clinical Cmax for an agent had not been determined, the highest concentration tested was 10 microM.\nThe patient-derived cancer (PDC) cell lines include five colon adenocarcinomas: 186277-243-T-J2-PDC, 616215-338-R-J1-PDC, 439559-082-T-J2-PDC, 463943-066-T-J2-PDC, and 519858-162-T-J1-PDC; three pancreatic carcinomas: 323965-272-R-J2-PDC, 521955-158-R6-J3-PDC, and 521955-158-R2-J5-PDC; two uterine sarcomas: 327498-152-R-J2-PDC and 993429-296-R-J1-PDC; two rhabdomyosarcomas: 755483-174-R-J1-PDC and 772245-204-R-J1-PDC; two soft tissue sarcomas: 126254-015-R-J1-PDC and 494315-158-R-J1-PDC; two malignant fibrous histiocytomas: 317291-083-R-J1-PDC and 596521-263-R-J1-PDC; two breast carcinomas: 171881-019-R-J1-PDC and 885512-296-R-J2-PDC; and one ovarian carcinoma: 6556581-035-R-J-PDC were obtained from the NCI PDMR, (https://pdmr.cancer.gov). The established cell lines HSSY-2 synovial sarcoma (RRID:CVCL 8719), SYO-1 synovial sarcoma (RRID:CVCL_7146), MPNST malignant peripheral neural sheath tumor were obtained from the Sloan Kettering Institute. The following established cell lines were purchased from the American Type Culture Collection (ATCC, Manassas, VA), Sor the received from the NCI repository:, PANC-1 pancreatic carcinoma (CRL-1469, RRID:CVCL_0480), OVCAR-5 ovarian carcinoma (RRID:CVCL_1628), OVCAR-8 ovarian carcinoma (RRID:CVCL_1629), , MCF-7 breast carcinoma (CRL-12584, RRID:CVCL_0031), MDA-MB-231 breast carcinoma (CRL-12532, RRID:CVCL_0062), NCI-H1876 small cell lung carcinoma (CRL-5902, RRID:CVCL_1503), NCI-H510A small cell lung carcinoma (HTB-184, RRID:CVCL_1565), NCI-H1417 (CRL-5869, RRID:CVCL_1469), and NCI-H196 small cell lung carcinoma (CRL-5823, RRID:CVCL_1509). Dr. Peter Houghton (Greehey Children's Cancer Research Institute, University of Texas Health Science Center, San Antonio, TX) provided Rh-18 rhabdomyosarcoma (RRID:CVCL_1659). Pooled donor human umbilical vein endothelial cells (HUVEC, Lonza, cat. CC-2519) and human mesenchymal stem cells (hMSC, Lonza, cat. PT-2501) were purchased from Lonza (Walkersville, MD).\nCell Culture. […]",
  "note": "For part of its entries the source gives two or more results. The other results are left out here. The source may hold further records. Values that stand side by side repeat one measurement in other runs, samples, wells, individuals or studies. Marks such as (2×) say how often a value occurs here.",
  "data": [
    {"compound": "Cc1c(S(C)(=O)=O)c(-c2cc(F)cc(N3CCN(c4ccc(NS(=O)(=O)c5ccc(NC(CCN6CCC(C(=O)OCCCP(=O)(O)O)CC6)CSc6ccccc6)c(S(=O)(=O)C(F)(F)F)c5)cc4)CC3)c2)c(-c2ccc(Cl)cc2)n1C(C)C", "note": "(configuration not stated);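 further: seven day drug exposure begun three days after spheroid seeding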;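 on viability, T/C: 100% = DMSO vehicle wells and lower values mean less viable spheroid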", "values": [
      {"measurement": "viability, T/C", "setting": "compound alone 0.1 µM", "result": "109, 98.5, 84.8, 91.8, 77.7, 88.6, 59.7%"},
      {"measurement": "viability, T/C", "setting": "compound alone 0.316 µM", "result": "98.3, 79.8, 112, 94.8, 91.3, 103, 61.1%"},
      {"measurement": "viability, T/C", "setting": "compound alone 3.16 µM", "result": "72, 96.5, 99.8, 88.1, 80.3, 108, 61.8%"},
      {"measurement": "viability, T/C", "setting": "compound alone 10 µM", "result": "85, 82.8, 91.9, 81.2, 60.1, 80.3, 83.6%"}
    ]},
    {"compound": "CNC(C)C(=O)NC1CN(S(=O)(=O)c2cccc(S(=O)(=O)N3CCC4CCC(C(=O)NC(c5ccccc5)c5ccccc5)N4C(=O)C(NC(=O)C(C)NC)C3)c2)CCC2CCC(C(=O)NC(c3ccccc3)c3ccccc3)N2C1=O", "note": "(configuration not stated)", "values": [
      {"measurement": "viability, T/C", "setting": "compound alone 0.00316 µM", "result": "83.5, 95.4, 60.4, 100, 117, 85.2, 83.8, 92.5, 99.4%"},
      {"measurement": "viability, T/C", "setting": "compound alone 0.01 µM", "result": "88.5, 66.1, 86.4, 89.1, 90.4, 82.1, 88.8, 105, 93%"},
      {"measurement": "viability, T/C", "setting": "compound alone 0.0316 µM", "result": "85.9, 89.5, 86.7, 115, 93.5, 92.8, 87.7, 99.5, 111%"},
      {"measurement": "viability, T/C", "setting": "compound alone 0.1 µM", "result": "79, 87.9, 124, 111, 93.9, 97.9, 89.7, 102, 116%"},
      {"measurement": "viability, T/C", "setting": "compound alone 0.316 µM", "result": "79.6, 93.4, 106, 121, 111, 85.4, 107, 96.8, 112%"},
      {"measurement": "viability, T/C", "setting": "compound alone 1 µM", "result": "69.1, 85.1, 83, 96, 95.2, 88.4, 76.8, 87.6, 101%"}
    ]},
    {"compound": "CCN1C(C(=O)NC23CCC(C(=O)O)(CC2)CC3)C(c2cccc(Cl)c2F)C2(C(=O)Nc3cc(Cl)ccc32)C12CCCCC2", "note": "(configuration not stated)", "values": [
      {"measurement": "viability, T/C", "setting": "compound alone 0.00949 µM", "result": "99.5, 85.6, 85.7, 94.7, 94.8, 70.7, 86.2, 71.7, 98.2%"},
      {"measurement": "viability, T/C", "setting": "compound alone 0.03 µM", "result": "119, 93.2, 86.6, 85.7, 74.1, 97.8, 77.8, 92, 80.5%"},
      {"measurement": "viability, T/C", "setting": "compound alone 0.0949 µM", "result": "82.5, 78.6, 110, 74.7, 100, 99.2, 81.3, 76.8, 75.9%"},
      {"measurement": "viability, T/C", "setting": "compound alone 0.3 µM", "result": "105, 98.2, 97.4, 87.5, 108, 91.3, 85, 74.6, 96.2%"},
      {"measurement": "viability, T/C", "setting": "compound alone 0.949 µM", "result": "103, 83.6, 110, 97.2, 63.5, 111 (2×), 64.1, 73.1%"},
      {"measurement": "viability, T/C", "setting": "compound alone 3 µM", "result": "91.6, 93.4, 71.5, 97.7, 101, 78.5, 102, 65.8, 86.2%"}
    ]},
    {"compound": "COc1c(OCCCN2CCOCC2)ccc2c3n(c(=NC(=O)c4cnc(N)nc4)nc12)CCN3", "values": [
      {"measurement": "IC50", "setting": "compound alone", "result": "99.4 nM, > 1 µM, 153 nM"}
    ]}
  ]
}
